Assay [1] has as its system RAW-Dual. Description: IRF Lucia reporter activity, fold change vs agonist alone; cytotoxicity flag (confluency mask): not cytotoxic; higher = enhanced IRF activity. In short, it runs like this: (§1)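 Library stock was pin-tooled at 50 nL into 384-well plates of RAW-Dual macrophages (50,000 cells/well, DMEM), followed 1 h later by a PRR agonist, and the cells were kept at 37 °C, 5% CO2. Supernatant collected after 20 hours was read for IRF by QuantiLuc luminescence and for NF-κB by QuantiBlue absorbance at 620 nm. Reporter activity is fold change over agonist-alone wells, and a well counted as cytotoxic when its IncuCyte confluency was below 70% of agonist controls in both mask sets.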

The test system of assay [2] is RAW-Dual. Briefly: IRF Lucia reporter activity, fold change vs agonist alone; higher = enhanced IRF activity. As to conditions: agonist: MPLA (TLR4) […]. In short, it runs like this:
as §1

Assay [3] deals with RAW-Dual. Description: IRF Lucia reporter activity, fold change vs agonist alone; cytotoxicity flag (confluency mask): cytotoxic (confluency <70% of control); higher = enhanced IRF activity. In a few lines:
as §1

The mark [4] stands for this setting: agonist: 3'3'-cGAMP (STING) 10 ug/mL.
The mark [5] stands for this setting: library stock concentration (final ~1000-fold dilution): 10 mM, cytotoxicity flag (confluency mask): not cytotoxic.
[6] abbreviates: library stock concentration (final ~1000-fold dilution): 10 mM water, cytotoxicity flag (confluency mask): not cytotoxic.

Data on 28 compounds can be found in the supplement of paper PMC10037445.

Over roughly 2,900 compounds, “IRF Lucia reporter activity, fold change vs agonist alone” has its median near 0.9; the highest 2% begin near 2.8. Some of the results follow.

As to `CC#CC1(O)CCC2C3CCC4=CC(=O)CCC4=C3C(c3ccc(N(C)C)cc3)CC21C` (stereo not given) (library stock concentration (final ~1000-fold dilution): 10 mM), the “IRF Lucia reporter activity” value in the assay on RAW-Dual [1] (setting [4]) turned out to be 1.29; with RAW-Dual [1] (agonist: LPS (TLR4) 0.1 ug/mL), 0.908.
For the compound `CC#CC1(O)CCC2C3CCC4=CC(=O)CCC4=C3C(c3ccc(N(C)C)cc3)CC21C` (stereo not given), the “IRF Lucia reporter activity” value with RAW-Dual [2] (setting [5]) came to 0.886.
For `Oc1c(F)cc(-c2cnccc2-c2ccc(N3CCOCC3)cc2)cc1F` (library stock concentration (final ~1000-fold dilution): 10 mM), the “IRF Lucia reporter activity” value in the assay on RAW-Dual [1] (setting [4]) turned out to be 0.603; in the assay with RAW-Dual [1] (agonist: LPS (TLR4) 0.1 ug/mL) it was 0.991.
Consider `CCCCCCCCCCCCc1ccc(S(=O)(=O)Nc2nncs2)cc1`, for which, in the assay with RAW-Dual [2] (library stock concentration (final ~1000-fold dilution): 10 mM, cytotoxicity flag (confluency mask): cytotoxic (confluency <70% of control)), the “IRF Lucia reporter activity” value came out at 0.649.
Regarding `CCCCCCCCCCCCc1ccc(S(=O)(=O)Nc2nncs2)cc1` (library stock concentration (final ~1000-fold dilution): 10 mM), the “IRF Lucia reporter activity” value with RAW-Dual [3] (setting [4]) amounted to 0.835; in the assay on RAW-Dual [3] (agonist: LPS (TLR4) 0.1 ug/mL), 0.588.
In the case of `CN1CCN(c2c(F)cc3c(=O)c(C(=O)O)cn4c3c2OCN4C)CC1` (library stock concentration (final ~1000-fold dilution): 2 mM), the entries for the “IRF Lucia reporter activity” value with RAW-Dual [1] (setting [4]) and with RAW-Dual [1] (agonist: LPS (TLR4) 0.1 ug/mL) were 0.896 and 0.928, respectively.
As for `CN1CCN(c2c(F)cc3c(=O)c(C(=O)O)cn4c3c2OCN4C)CC1`, in the assay on RAW-Dual [2] (library stock concentration (final ~1000-fold dilution): 2 mM, cytotoxicity flag (confluency mask): not cytotoxic), the “IRF Lucia reporter activity” value stood at 1.25.
As for `COc1ccccc1OCC(O)CN1CCN(CC(=O)Nc2c(C)cccc2C)CC1.Cl.Cl` (stereo not given), in the assay on RAW-Dual [2] (setting [5]), the “IRF Lucia reporter activity” value worked out at 1.02.
Regarding `COc1ccccc1OCC(O)CN1CCN(CC(=O)Nc2c(C)cccc2C)CC1.Cl.Cl` (stereo not given) (library stock concentration (final ~1000-fold dilution): 10 mM), the “IRF Lucia reporter activity” value was 1.02 with RAW-Dual [1] (setting [4]) and 1.16 in the assay on RAW-Dual [1] (agonist: LPS (TLR4) 0.1 ug/mL).
On to `COc1cc(C(C)=O)ccc1O` (library stock concentration (final ~1000-fold dilution): 10 mM), for which the results for the “IRF Lucia reporter activity” value in the assay with RAW-Dual [1] (setting [4]) and with RAW-Dual [1] (agonist: LPS (TLR4) 0.1 ug/mL) were 0.969 and 0.825, respectively.
For the compound `COc1cc(C(C)=O)ccc1O`, the “IRF Lucia reporter activity” value in the assay on RAW-Dual [2] (setting [5]) is 0.839.
As for `CC/C(=C(/c1ccc(/C=C/C(=O)O)cc1)c1ccc2[nH]ncc2c1)c1ccc(F)cc1Cl` (library stock concentration (final ~1000-fold dilution): 10 mM), the “IRF Lucia reporter activity” value turned out to be 0.843 in the assay with RAW-Dual [1] (setting [4]) and 1.14 in the assay with RAW-Dual [1] (agonist: LPS (TLR4) 0.1 ug/mL).
The like results for `CCOC(=O)C(N)Cc1ccc(-c2cc(OC(c3ccc(Cl)cc3-n3ccc(C)n3)C(F)(F)F)nc(N)n2)cc1.O=C(O)CNC(=O)c1ccccc1` (stereo not given) (library stock concentration (final ~1000-fold dilution): 10 mM) were, in that order, 1.09 and 0.731.
On to `CCOC(=O)C(N)Cc1ccc(-c2cc(OC(c3ccc(Cl)cc3-n3ccc(C)n3)C(F)(F)F)nc(N)n2)cc1.O=C(O)CNC(=O)c1ccccc1` (stereo not given), for which the “IRF Lucia reporter activity” value in the assay on RAW-Dual [2] (setting [5]) is 1.11.
For `C[N+](C)(C)CCOC(=O)CCC(=O)OCC[N+](C)(C)C` (library stock concentration (final ~1000-fold dilution): 10 mM water), the “IRF Lucia reporter activity” value is 1.16 in the assay on RAW-Dual [1] (setting [4]) and 0.902 in the assay on RAW-Dual [1] (agonist: LPS (TLR4) 0.1 ug/mL).
With `C[N+](C)(C)CCOC(=O)CCC(=O)OCC[N+](C)(C)C`, the “IRF Lucia reporter activity” value with RAW-Dual [2] (setting [6]) was determined as 1.35.
On to `CC(Cc1ccc(O)c(O)c1)(NN)C(=O)O` (stereo not given) (library stock concentration (final ~1000-fold dilution): 10 mM), for which the entries for the “IRF Lucia reporter activity” value in the assay on RAW-Dual [1] (setting [4]) and with RAW-Dual [1] (agonist: LPS (TLR4) 0.1 ug/mL) were 0.921 and 1.15, respectively.
Regarding `CC(Cc1ccc(O)c(O)c1)(NN)C(=O)O` (stereo not given), the “IRF Lucia reporter activity” value in the assay on RAW-Dual [2] (setting [5]) was 0.984.
In the case of `Cc1cc(O)c(-c2ccc(C(C)CN)cc2)c2c1[nH]c(=O)c1sccc12.Cl` (stereo not given) (library stock concentration (final ~1000-fold dilution): 10 mM), the “IRF Lucia reporter activity” value with RAW-Dual [3] (setting [4]) came to 0.0139; in the assay with RAW-Dual [3] (agonist: LPS (TLR4) 0.1 ug/mL) it was 0.0203.
Consider `CCCCCCCCCCCCCCCCOP(=O)([O-])OCC[N+](C)(C)C`, for which the “IRF Lucia reporter activity” value in the assay on RAW-Dual [2] (setting [6]) stood at 1.32.
Consider `CCCCCCCCCCCCCCCCOP(=O)([O-])OCC[N+](C)(C)C` (library stock concentration (final ~1000-fold dilution): 10 mM water), for which the “IRF Lucia reporter activity” value was found to be 0.694 with RAW-Dual [1] (setting [4]) and 0.984 in the assay with RAW-Dual [1] (agonist: LPS (TLR4) 0.1 ug/mL).
The like results for `Nc1cc(F)ccc1NC(=O)/C=C/c1cnn(C/C=C/c2ccccc2)c1` (library stock concentration (final ~1000-fold dilution): 10 mM) were, in that order, 0.0186 and 0.368.
As to `Nc1cc(F)ccc1NC(=O)/C=C/c1cnn(C/C=C/c2ccccc2)c1`, in the assay on RAW-Dual [2] (setting [5]), the “IRF Lucia reporter activity” value came to 0.106.
Regarding `NC1=NC(c2cccc(-c3cncnc3)c2)(c2ccnc(C(F)F)c2)c2cccc(F)c21` (stereo not given) (library stock concentration (final ~1000-fold dilution): 10 mM), the figures for the “IRF Lucia reporter activity” value with RAW-Dual [1] (setting [4]) and in the assay with RAW-Dual [1] (agonist: LPS (TLR4) 0.1 ug/mL) were 0.483 and 0.548, respectively.
For `O=C(Nc1nccs1)C(c1cc(F)ccc1O)N1Cc2ccccc2C1=O` (stereo not given) (library stock concentration (final ~1000-fold dilution): 10 mM), in that order: 1.39 and 1.25.
Consider `CN(C)Cc1ccc(S(=O)(=O)n2ccc(/C=C/C(=O)NO)c2)cc1` (library stock concentration (final ~1000-fold dilution): 10 mM), for which the “IRF Lucia reporter activity” value was determined as 0.974 with RAW-Dual [1] (setting [4]) and 0.374 with RAW-Dual [1] (agonist: LPS (TLR4) 0.1 ug/mL).
As to `CN(C)Cc1ccc(S(=O)(=O)n2ccc(/C=C/C(=O)NO)c2)cc1`, the “IRF Lucia reporter activity” value in the assay on RAW-Dual [2] (setting [5]) stood at 1.15.
Regarding `O=C(Cn1nnc(-c2ccncc2)c1-c1ccccc1)Nc1ccc(-c2ccccc2)cn1` (library stock concentration (final ~1000-fold dilution): 10 mM), the “IRF Lucia reporter activity” value with RAW-Dual [1] (setting [4]) came to 0.859; in the assay on RAW-Dual [1] (agonist: LPS (TLR4) 0.1 ug/mL), 0.699.
